Reference: paper PMC4336329 (PLoS ONE, 2015)
Out of some 310,000 compounds screened, about 14,000 (4.5%) showed an effect of 50% or more. Effects have a minus sign here. This is one part of the list.

biological target: human ether-à-go-go-related gene (hERG) potassium channel (human, UniProt Q12809); assay: primary screen, population patch clamp on CHO cells stably expressing hERG
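Also: peak tail current of the secondary pulse compared with the same well before compound.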

Chain of human ether-à-go-go-related gene (hERG) potassium channel (Q12809 whole entry, looked up): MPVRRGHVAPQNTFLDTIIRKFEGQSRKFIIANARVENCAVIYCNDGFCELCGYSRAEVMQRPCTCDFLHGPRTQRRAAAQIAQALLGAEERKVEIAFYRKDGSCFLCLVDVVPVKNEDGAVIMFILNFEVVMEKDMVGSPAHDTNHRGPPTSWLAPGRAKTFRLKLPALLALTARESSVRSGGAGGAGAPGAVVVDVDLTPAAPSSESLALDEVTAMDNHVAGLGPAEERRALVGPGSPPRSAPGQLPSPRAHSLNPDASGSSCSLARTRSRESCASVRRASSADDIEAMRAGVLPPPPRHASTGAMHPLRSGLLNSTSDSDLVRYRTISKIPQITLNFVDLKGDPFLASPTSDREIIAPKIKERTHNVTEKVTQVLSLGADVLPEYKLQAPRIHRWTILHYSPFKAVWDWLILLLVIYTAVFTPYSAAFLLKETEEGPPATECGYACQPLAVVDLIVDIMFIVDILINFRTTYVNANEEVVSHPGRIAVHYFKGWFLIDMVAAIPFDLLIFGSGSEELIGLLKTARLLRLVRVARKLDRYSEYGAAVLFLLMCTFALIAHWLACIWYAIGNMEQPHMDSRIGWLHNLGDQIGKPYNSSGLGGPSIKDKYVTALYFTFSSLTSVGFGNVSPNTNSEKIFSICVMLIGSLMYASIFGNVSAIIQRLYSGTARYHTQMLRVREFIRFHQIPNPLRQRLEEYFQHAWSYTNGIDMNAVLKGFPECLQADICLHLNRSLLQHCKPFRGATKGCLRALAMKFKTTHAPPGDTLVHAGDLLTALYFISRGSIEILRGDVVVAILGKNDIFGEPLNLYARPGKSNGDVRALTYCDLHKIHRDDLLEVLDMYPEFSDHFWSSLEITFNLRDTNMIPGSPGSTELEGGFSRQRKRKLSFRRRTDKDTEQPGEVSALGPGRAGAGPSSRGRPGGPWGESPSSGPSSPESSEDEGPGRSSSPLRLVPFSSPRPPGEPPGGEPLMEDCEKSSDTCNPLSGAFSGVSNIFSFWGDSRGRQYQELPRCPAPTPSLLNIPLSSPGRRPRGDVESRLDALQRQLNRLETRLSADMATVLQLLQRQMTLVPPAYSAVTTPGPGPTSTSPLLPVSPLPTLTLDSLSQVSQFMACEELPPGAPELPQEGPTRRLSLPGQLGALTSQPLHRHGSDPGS

Row | Structure (SMILES) | hERG current change (%, negative = inhibition) at 10uM
1 | C=CCn1c(SCCN2CCCCC2)nc2c1c(=O)[nH]c(=O)n2C | -47.3%
2 | CN(C)c1ccc(CN2CCC(C(N)=O)CC2)cc1.O=C(O)C(=O)O | 39.8%
3 | O=S1(=O)CCC(SCc2nc3sccn3c2Br)C1 (centres unmarked) | -3.7%
4 | Cc1ccc(-c2nnc(SCC(=O)N3CCCC3)o2)cc1 | -5.18%
5 | CCS(=O)(=O)n1nc(C(=O)N2CCOCC2)nc1N | 6.35%
6 | Cc1cc(C)cc(CC(Cc2nc3ccccc3[nH]2)c2nc3ccccc3[nH]2)c1 (centres unmarked) | 7.23%
7 | O=c1/c(=C/c2cccc3ccccc23)sc2ncnn12 | -8.89%
8 | S=C(Nc1cccc(Cl)c1)Nc1ccccc1Oc1ccccc1 | 15.7%
9 | CCC(C)(C(=O)Nc1ccc2c(c1)OCCO2)N(C(C)=O)c1ccc(C(N)=O)cc1 (centres unmarked) | -4.82%
10 | O=C1NC(Nc2ccccn2)(C(F)(F)F)C(=O)N1c1ccc(F)cc1 (centres unmarked) | -0.785%
11 | Cc1c(NC(=O)C(C)Oc2cccc(Cl)c2)c(=O)n(-c2ccccc2)n1C (centres unmarked) | -2.21%
12 | CC(=O)N=c1sccn1CC(=O)c1ccc([N+](=O)[O-])cc1 | -13.9%
13 | COc1cc(/C=N/NC(=O)c2ccc3nc[nH]c3c2)cc(OC)c1OC | 4.81%
14 | CCOC(=O)c1cnc2c(-c3ccccc3)c(-c3ccccc3)nn2c1C | 10.2%
15 | CC(=O)Nc1cccc(NC(=O)c2cc(C)on2)c1 | 7.35%
16 | COc1cccc(C(=O)NNC(=O)Cc2csc(N)n2)c1 | -15.7%
17 | CC(C)CCN(C(=O)c1ccc(N2CCCC2=O)cc1)c1c(N)n(Cc2ccccc2)c(=O)[nH]c1=O | 12.2%
18 | CSc1ccccc1NC(=O)c1cnc2scc(C)n2c1=O | 7.7%
19 | CC1Cc2ccccc2N1CC(=O)Nc1ccc2c(c1)OCO2 (centres unmarked) | 8.8%
20 | COc1ccc(C(=O)N[C@H](C(=O)NCc2ccccc2)C(C)C)cc1 | 1.34%
21 | COc1ccc(/C=N/NC(=O)c2c(C)nnn2-c2nonc2N)cc1OC | 21.9%
22 | O=C1CC(c2ccccc2)N1c1ccccc1 (centres unmarked) | -3.61%

Row | Structure (SMILES) | hERG current change (%, negative = inhibition) at 10uM
23 | CC(C)(C)c1nnc(NC(=O)C2CCN(C(=O)c3ccco3)CC2)s1 | 9.75%
24 | CCOc1cccc(NC(=O)CC#N)c1 | 8.73%
25 | O=C1C=C(c2cccc(Cl)c2)C[C@@H](c2ccc(Cl)cc2)C1 | 24.4%
26 | Cc1c(C)c(C)c(CO/N=C/c2cccs2)c(C)c1C | -6.05%
27 | COc1ccc(C)cc1NC(=O)CCNS(=O)(=O)c1ccc2c(c1)CCC(=O)N2 | -5.18%
28 | COc1ccc2ncc(S(=O)(=O)c3ccccc3)c(N3CCC4(CC3)OCCO4)c2c1 | -63.3%
29 | CCC1=NN(C(=O)CCc2ccc3c(c2)OCO3)C(O)(C(F)(F)F)C1 (centres unmarked) | 0.796%
30 | Cc1cccc(-[n+]2c(C)cc(C)c3c(=O)[nH]c(=O)[nH]c32)c1.[I-] | 4.06%
31 | O=c1c2ccccc2nc(SCc2ccc([N+](=O)[O-])cc2)n1-c1ccc(Cl)cc1 | 2.79%
32 | CC(=O)c1c(C)n(CC(=O)NCc2ccco2)c2ccccc12 | -9.29%
33 | Cc1nc2cc(NC(=O)Nc3ccccc3Cl)ccc2n1C | -10%
34 | CCc1nnc(NC(=O)C2CC(=O)N(c3ccc(C)cc3)C2)s1 (centres unmarked) | -15.5%
35 | O=C(O)c1csc(-n2nc(-c3ccccc3)cc2C(F)(F)F)n1 | 15.5%
36 | Cc1ccc2nc(SCC(=O)Nc3ccc(F)c([N+](=O)[O-])c3)[nH]c2c1 | -2.06%
37 | COc1cc(CCC(=O)OCc2nnc(-c3ccccc3)o2)cc(OC)c1OC | -25.2%
38 | COc1ccc(NC(=O)C2CCCN(C(=O)Nc3ccc(F)cc3)C2)cc1OC (centres unmarked) | 0.0756%
39 | Cc1ccc2nccc(C(=O)N3CCCC(Nc4ccc(F)cc4)C3)c2c1 (centres unmarked) | -18.4%
40 | COc1cc2c(cc1OC)CN(Cc1cc(=O)oc3cc(C)c(Cl)cc13)CC2 | -14.3%
41 | Cc1cc(C)nc(-n2nc(C)cc2NC(=O)CNC2CCCCC2)n1 | -52.4%
42 | CCCN(CC1CCCO1)C(=O)c1cc(COc2cccc(OC)c2)on1 (centres unmarked) | -4.79%
43 | Cc1nc(NC(=O)CSc2nnc(N)s2)c(Cl)cc1Cl | 25.3%
44 | CCCn1cc(SCC(=O)Nc2cc(C)on2)c2ccccc21 | -6.19%
